# Laboratory results from the supplement of paper PMC8728848.
# Some of the results follow.
# B1: Nc3LysM (protein)
# chain: QFTVPPDTTAEPNTIKTCTWWHVAGSGDSCTSIASTYGITSEQFARWDMETTDSPKNPSVATACKLTVGNSYCIENNFGQDDPPTPSISSSTLIGTATTSTTASTTTGNGISTPTPIQEGMETATTTTSSGNGITTPTPTQAGMETVGNCDRFHLVKSGDQCGTIASTYGITLANFYSWNPAVGTSCQSLWLDTYVCVRTIGFVPPKTTTTTTKKPTSTTSAGGVATPTPTQPGMETVSGCKKFHKGRGNVSTVASGDQCGTIATRYGISLANFYSWNPAVGSSCQTLWLDYYVCVGR
# Assays:
# Assay in all cases: glycan array binding signal (z-score within array); higher = stronger binding
# Details in all cases: glycan notation: IUPAC condensed, linker removed
# [1] = target: Gal(b1-4)GlcNAc(b1-3)Gal(b1-4)GlcNAc(b1-2)[Gal(b1-4)GlcNAc(b1-3)Gal(b1-4)GlcNAc(b1-6)]Man(a1-6)[Gal(b1-4)GlcNAc(b1-3)Gal(b1-4)GlcNAc(b1-2)Man(a1-3)]Man(b1-4)GlcNAc(b1-4)GlcNAc
# Summary of the method: (§1)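 Negative Z-scores can be read as non-binding. The Z-score is calculated within each array and then averaged across arrays of one protein sequence at different concentrations or buffers and across linkers. Arrays, 3228 in all, were curated from the Consortium for Functional Glycomics database and kept only where the protein sequence was available.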
# [2] = target: Gal(b1-4)GlcNAc(b1-3)Gal(b1-4)GlcNAc(b1-2)[Gal(b1-4)GlcNAc(b1-3)Gal(b1-4)GlcNAc(b1-6)]Man(a1-6)[Gal(b1-4)GlcNAc(b1-3)Gal(b1-4)GlcNAc(b1-2)Man(a1-3)]Man(b1-4)GlcNAc(b1-4)[Fuc(a1-6)]GlcNAc
# Summary of the method: as §1
# [3] = target: Gal(b1-4)GlcNAc(b1-3)Gal(b1-4)GlcNAc(b1-3)Gal(b1-4)GlcNAc
# Summary of the method: as §1
# [4] = target: Gal(b1-4)GlcNAc(b1-3)Gal(b1-4)GlcNAc(b1-3)Gal(b1-4)GlcNAc(b1-2)Man(a1-3)[Gal(b1-4)GlcNAc(b1-3)Gal(b1-4)GlcNAc(b1-3)Gal(b1-4)GlcNAc(b1-2)Man(a1-6)]Man(b1-4)GlcNAc(b1-4)GlcNAc
# Summary of the method: as §1
# [5] = target: Gal(b1-4)GlcNAc(b1-3)Gal(b1-4)GlcNAc(b1-3)Gal(b1-4)GlcNAc(b1-2)Man(a1-3)[Gal(b1-4)GlcNAc(b1-3)Gal(b1-4)GlcNAc(b1-3)Gal(b1-4)GlcNAc(b1-2)Man(a1-6)]Man(b1-4)GlcNAc(b1-4)[Fuc(a1-6)]GlcNAc
# Summary of the method: as §1
# [6] = target: Gal(b1-4)GlcNAc(b1-3)Gal(b1-4)GlcNAc(b1-3)Gal(b1-4)GlcNAc(b1-2)[Gal(b1-4)GlcNAc(b1-3)Gal(b1-4)GlcNAc(b1-3)Gal(b1-4)GlcNAc(b1-6)]Man(a1-6)[Gal(b1-4)GlcNAc(b1-3)Gal(b1-4)GlcNAc(b1-3)Gal(b1-4)GlcNAc(b1-2)Man(a1-3)]Man(b1-4)GlcNAc(b1-4)[Fuc(a1-6)]GlcNAc
# Summary of the method: as §1
# [7] = target: Gal(b1-4)GlcNAc(b1-3)Gal(b1-4)GlcNAc(b1-3)Gal(b1-4)GlcNAc(b1-3)Gal(b1-4)GlcNAc(b1-2)Man(a1-3)[Gal(b1-4)GlcNAc(b1-3)Gal(b1-4)GlcNAc(b1-3)Gal(b1-4)GlcNAc(b1-3)Gal(b1-4)GlcNAc(b1-2)Man(a1-6)]Man(b1-4)GlcNAc(b1-4)GlcNAc
# Summary of the method: as §1
# [8] = target: Gal(b1-4)GlcNAc(b1-3)Gal(b1-4)GlcNAc(b1-3)Gal(b1-4)GlcNAc(b1-3)Gal(b1-4)GlcNAc(b1-2)Man(a1-3)[Gal(b1-4)GlcNAc(b1-3)Gal(b1-4)GlcNAc(b1-3)Gal(b1-4)GlcNAc(b1-3)Gal(b1-4)GlcNAc(b1-2)Man(a1-6)]Man(b1-4)GlcNAc(b1-4)[Fuc(a1-6)]GlcNAc
# Summary of the method: as §1
# [9] = target: Gal(b1-4)GlcNAc(b1-3)Gal(b1-4)GlcNAc(b1-3)Gal(b1-4)GlcNAc(b1-3)Gal(b1-4)GlcNAc(b1-2)[Gal(b1-4)GlcNAc(b1-3)Gal(b1-4)GlcNAc(b1-3)Gal(b1-4)GlcNAc(b1-3)Gal(b1-4)GlcNAc(b1-6)]Man(a1-6)[Gal(b1-4)GlcNAc(b1-3)Gal(b1-4)GlcNAc(b1-3)Gal(b1-4)GlcNAc(b1-3)Gal(b1-4)GlcNAc(b1-2)Man(a1-3)]Man(b1-4)GlcNAc(b1-4)[Fuc(a1-6)]GlcNAc
# Summary of the method: as §1
# [10] = target: Gal(b1-4)GlcNAc(b1-3)Gal(b1-4)GlcNAc(b1-3)Gal(b1-4)GlcNAc(b1-3)Gal(b1-4)GlcNAc(b1-3)Gal(b1-4)GlcNAc(b1-2)Man(a1-3)[Gal(b1-4)GlcNAc(b1-3)Gal(b1-4)GlcNAc(b1-3)Gal(b1-4)GlcNAc(b1-3)Gal(b1-4)GlcNAc(b1-3)Gal(b1-4)GlcNAc(b1-2)Man(a1-6)]Man(b1-4)GlcNAc(b1-4)GlcNAc
# Summary of the method: as §1
# [11] = target: Gal(b1-4)GlcNAc(b1-3)Gal(b1-4)GlcNAc(b1-3)Gal(b1-4)GlcNAc(b1-3)Gal(b1-4)GlcNAc(b1-3)Gal(b1-4)GlcNAc(b1-2)Man(a1-3)[Gal(b1-4)GlcNAc(b1-3)Gal(b1-4)GlcNAc(b1-3)Gal(b1-4)GlcNAc(b1-3)Gal(b1-4)GlcNAc(b1-3)Gal(b1-4)GlcNAc(b1-2)Man(a1-6)]Man(b1-4)GlcNAc(b1-4)[Fuc(a1-6)]GlcNAc
# Summary of the method: as §1
# [12] = target: Gal(b1-4)GlcNAc(b1-3)Gal(b1-4)GlcNAc(b1-3)Gal(b1-4)GlcNAc(b1-3)Gal(b1-4)GlcNAc(b1-3)Gal(b1-4)GlcNAc(b1-2)[Gal(b1-4)GlcNAc(b1-3)Gal(b1-4)GlcNAc(b1-3)Gal(b1-4)GlcNAc(b1-3)Gal(b1-4)GlcNAc(b1-3)Gal(b1-4)GlcNAc(b1-6)]Man(a1-6)[Gal(b1-4)GlcNAc(b1-3)Gal(b1-4)GlcNAc(b1-3)Gal(b1-4)GlcNAc(b1-3)Gal(b1-4)GlcNAc(b1-3)Gal(b1-4)GlcNAc(b1-2)Man(a1-3)]Man(b1-4)GlcNAc(b1-4)[Fuc(a1-6)]GlcNAc
# Summary of the method: as §1
# [13] = target: Gal(b1-4)GlcNAc(b1-3)Gal(b1-4)GlcNAc(b1-3)Gal(b1-4)GlcNAc(b1-3)Gal(b1-4)GlcNAc(b1-3)Gal(b1-4)GlcNAc(b1-3)Gal(b1-4)GlcNAc(b1-2)Man(a1-3)[Gal(b1-4)GlcNAc(b1-3)Gal(b1-4)GlcNAc(b1-3)Gal(b1-4)GlcNAc(b1-3)Gal(b1-4)GlcNAc(b1-3)Gal(b1-4)GlcNAc(b1-3)Gal(b1-4)GlcNAc(b1-2)Man(a1-6)]Man(b1-4)GlcNAc(b1-4)GlcNAc
# Summary of the method: as §1
# [14] = target: Gal(b1-4)GlcNAc(b1-3)Gal(b1-4)GlcNAc(b1-3)GalNAc
# Summary of the method: as §1
# [15] = target: Gal(b1-4)GlcNAc(b1-3)Gal(b1-4)GlcNAc(b1-3)[Gal(b1-4)GlcNAc(b1-3)Gal(b1-4)GlcNAc(b1-6)]GalNAc
# Summary of the method: as §1
# [16] = target: Gal(b1-4)GlcNAc(b1-3)Gal(b1-4)GlcNAc(b1-6)[Gal(b1-3)]GalNAc
# Summary of the method: as §1
# [17] = target: Gal(b1-4)GlcNAc(b1-3)Gal(b1-4)[Fuc(a1-3)]GlcNAc(b1-3)Gal(b1-4)[Fuc(a1-3)]GlcNAc
# Summary of the method: as §1
# [18] = target: Gal(b1-4)GlcNAc(b1-3)GalNAc
# Summary of the method: as §1
# [19] = target: Gal(b1-4)GlcNAc(b1-3)[Fuc(a1-3)GlcNAc(b1-6)]Gal(b1-4)Glc
# Summary of the method: as §1
# [20] = target: Gal(b1-4)GlcNAc(b1-3)[Gal(b1-4)GlcNAc(b1-6)]Gal(b1-4)GlcNAc
# Summary of the method: as §1
# [21] = target: Gal(b1-4)GlcNAc(b1-3)[GlcNAc(b1-6)]Gal(b1-4)GlcNAc
# Summary of the method: as §1
# [22] = target: Gal(b1-4)GlcNAc(b1-6)Gal(b1-4)GlcNAc
# Summary of the method: as §1
# [23] = target: Gal(b1-4)GlcNAc(b1-6)GalNAc
# Summary of the method: as §1
# [24] = target: Gal(b1-4)GlcNAc(b1-6)[Gal(b1-3)]GalNAc
# Summary of the method: as §1
# [25] = target: Gal(b1-4)GlcNAc(b1-6)[Gal(b1-4)GlcNAc(b1-3)]GalNAc
# Summary of the method: as §1
# [26] = target: Gal(b1-4)GlcNAc6P
# Summary of the method: as §1
# [27] = target: Gal(b1-6)Gal
# Summary of the method: as §1
# [28] = target: Gal3S(b1-3)GalNAc
# Summary of the method: as §1
# [29] = target: Gal3S(b1-3)GlcNAc
# Summary of the method: as §1
# [30] = target: Gal3S(b1-3)[Fuc(a1-4)]GlcNAc
# Summary of the method: as §1
# [31] = target: Gal3S(b1-4)Glc
# Summary of the method: as §1
# [32] = target: Gal3S(b1-4)Glc6S
# Summary of the method: as §1
# [33] = target: Gal3S(b1-4)GlcNAc
# Summary of the method: as §1
# [34] = target: Gal3S(b1-4)[Fuc(a1-3)]Glc6S
# Summary of the method: as §1
# [35] = target: Gal3S(b1-4)[Fuc(a1-3)]GlcNAc
# Summary of the method: as §1
# [36] = target: Gal3S(b1-4)[Fuc(a1-3)]GlcNAc6S
# Summary of the method: as §1
# [37] = target: Gal3S4S(b1-4)GlcNAc
# Summary of the method: as §1
binder,measurement,setting,value
B1,glycan array binding signal (z-score),[1],0.008
same,glycan array binding signal (z-score),[2],-0.048
same,glycan array binding signal (z-score),[3],-0.018
same,glycan array binding signal (z-score),[4],0.173
same,glycan array binding signal (z-score),[5],0.154
same,glycan array binding signal (z-score),[6],0.042
same,glycan array binding signal (z-score),[7],-0.017
same,glycan array binding signal (z-score),[8],0.254
same,glycan array binding signal (z-score),[9],-0.061
same,glycan array binding signal (z-score),[10],-0.203
same,glycan array binding signal (z-score),[11],-0.034
same,glycan array binding signal (z-score),[12],0.342
same,glycan array binding signal (z-score),[13],0.137
same,glycan array binding signal (z-score),[14],0.039
same,glycan array binding signal (z-score),[15],-0.082
same,glycan array binding signal (z-score),[16],0.04
same,glycan array binding signal (z-score),[17],-0.035
same,glycan array binding signal (z-score),[18],-0.127
same,glycan array binding signal (z-score),[19],-0.089
same,glycan array binding signal (z-score),[20],-0.305
same,glycan array binding signal (z-score),[21],-0.098
same,glycan array binding signal (z-score),[22],-0.133
same,glycan array binding signal (z-score),[23],0.01
same,glycan array binding signal (z-score),[24],-0.15
same,glycan array binding signal (z-score),[25],-0.065
same,glycan array binding signal (z-score),[26],-0.025
same,glycan array binding signal (z-score),[27],-0.241
same,glycan array binding signal (z-score),[28],0.037
same,glycan array binding signal (z-score),[29],-0.104
same,glycan array binding signal (z-score),[30],-0.101
same,glycan array binding signal (z-score),[31],-0.026
same,glycan array binding signal (z-score),[32],-0.09
same,glycan array binding signal (z-score),[33],-0.013
same,glycan array binding signal (z-score),[34],0.037
same,glycan array binding signal (z-score),[35],0.229
same,glycan array binding signal (z-score),[36],0.178
same,glycan array binding signal (z-score),[37],-0.1
